Counter-ions that a name gives are not always drawn. The list shows a part of the results. Most values come without repeats; read them as rough.
Tests used:
KB-3-1 = assay: growth inhibition relative to DMSO control (SRB); cervical cancer cells: KB-3-1 is the parent and KB-V1 overexpresses MDR1; SRB is the sulforhodamine B stain; higher = more growth inhibition; settings: 1 µM; 72 h
KB-V1 = assay: as above; settings: 1 µM; 72 h
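Also: Read-out is SRB optical density at 490 nm, with the control being wells given 0.5% DMSO vehicle, and compound added one day after cells were plated.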

SMILES	growth inhibition (KB-3-1) [%]	growth inhibition (KB-V1) [%]
Nc1ccn([C@H]2CC[C@@H](CO)O2)c(=O)n1 [Zalcitabine]	44.9	15.9
CN/C(=N\CCSCc1nc[nH]c1C)NC#N [Cimetidine]	42.4	23.3
CCOC(=O)N1c2ccc(C(F)(F)F)cc2[C@@H](N(Cc2cc(C(F)(F)F)cc(C(F)(F)F)c2)C(=O)OC)C[C@H]1CC [Torcetrapib]	7.68	56.5
COC1CCN(C(=O)c2cc(Cc3n[nH]c(=O)c4ccccc34)ccc2F)CC1	2.54	23.4
CCc1cc2c(cc1N1CCC(N3CCOCC3)CC1)C(C)(C)c1[nH]c3cc(C#N)ccc3c1C2=O	< 0	3.12
CN(C)CCOc1ccc(-c2nc(-c3ccncc3)c(-c3ccc4c(c3)CC/C4=N\O)[nH]2)cc1	< 0	< 0
CC(C)(C)c1ccc(C(=O)CCCN2CCC(OC(c3ccccc3)c3ccccc3)CC2)cc1 [Ebastine]	33.2	16.9
C[C@]12CC[C@H](O)CC1=CC[C@@H]1[C@@H]2CC[C@]2(C)C(n3cnc4ccccc43)=CC[C@@H]12 [Galeterone]	20.5	11.9
Cc1ccc(Sc2ccccc2N2CCNCC2)c(C)c1	46.3	3.09
O=C(Oc1cc(S(=O)(=O)c2ccccc2)ccc1[N+](=O)[O-])c1ccc(Cl)cc1	49.7	5.56
CN1CCCC(n2nc(Cc3ccc(Cl)cc3)c3ccccc3c2=O)CC1 (configuration not stated) [Azelastine HCl]	31.3	8.51
CNC(=O)c1ccc(-c2cnc3ncc(Cc4ccc5ncccc5c4)n3n2)cc1F	15.1	49.9
CC[C@H](C)C(=O)O[C@H]1C[C@H](O)C=C2C=C[C@H](C)[C@H](CC[C@@H](O)C[C@@H](O)CC(=O)O)[C@H]21 [Pravastatin sodium]	7.3	8.05
O=C(Nc1cc(C(F)(F)F)cc(C(F)(F)F)c1)c1cc(Cl)ccc1O	61.7	80.7
COc1ccc(COc2cc3oc(=O)c4cc(C(C)O)ccc4c3cc2OC)cc1 (configuration not stated) [Palomid 529 (P529)]	< 0	21.5
O=C(NC1CCNCC1)c1n[nH]cc1NC(=O)c1c(Cl)cccc1Cl	99.7	35.9

SMILES	growth inhibition (KB-3-1) [%]	growth inhibition (KB-V1) [%]
COc1ccc(CNc2nc(N3CCC[C@H]3CO)ncc2C(=O)NCc2ncccn2)cc1Cl [Avanafil]	< 0	< 0
OC(CCN1CCCCC1)(c1ccccc1)C1CC2C=CC1C2 (configuration not stated) [Biperiden HCl]	8.77	38.5
Cc1cc(O)c2c(c1)C(=O)c1cccc(O)c1C2=O [Chrysophanic Acid]	< 0	32.7
O=C(O)CCCCC(CCSCc1ccccc1)SCc1ccccc1 (configuration not stated)	18.3	56.4
CNC(=O)c1cc(Oc2ccc(NC(=O)Nc3ccc(Cl)c(C(F)(F)F)c3)c(F)c2)ccn1 [Regorafenib (BAY 73-4506)]	24.9	31.9
C=CC[N+]1([C@H]2C[C@H]3[C@@H]4CC[C@H]5C[C@H](O)[C@@H](N6CCOCC6)C[C@]5(C)[C@H]4CC[C@]3(C)[C@H]2OC(C)=O)CCCC1 [Rocuronium Bromide]	14.4	32.1
NC(=O)Nc1cc(-c2cccc(F)c2)sc1C(=O)N[C@H]1CCCNC1	75.6	44.4
CC[C@H](NC(=O)[C@H](C)NC)C(=O)N1C[C@@H](O)C[C@H]1Cc1c(-c2[nH]c3cc(F)ccc3c2C[C@@H]2C[C@H](O)CN2C(=O)[C@H](CC)NC(=O)[C@H](C)NC)[nH]c2cc(F)ccc12 [Birinapant]	22.2	10.5
CN(C)C/C=C/C(=O)Nc1cc2c(Nc3ccc(F)c(Cl)c3)ncnc2cc1O[C@H]1CCOC1 [Afatinib (BIBW2992)]	91.2	73.2
O=C(NOCC1CC1)c1ccc(F)c(F)c1Nc1ccc(I)cc1Cl	89	92.1
COc1ccc(-c2ccc3ncc4c(c3c2)n(-c2ccc(N3CCNCC3)c(C(F)(F)F)c2)c(=O)n4C)cn1	100	100
CC(C(=O)O)c1cccc(C(=O)c2ccccc2)c1 (configuration not stated) [Ketoprofen]	35.3	12.2
CCCNCC(O)COc1ccccc1C(=O)CCc1ccccc1 (configuration not stated) [Propafenone HCl]	< 0	18.4
CCOC(=O)[C@H](CCc1ccccc1)N[C@@H](C)C(=O)N1Cc2cc(OC)c(OC)cc2C[C@H]1C(=O)O [Moexipril HCl]	28.7	22.3
COc1cccc2c1C(=O)c1c(O)c3c(c(O)c1C2=O)C[C@@](O)(C(=O)CO)C[C@@H]3O[C@H]1C[C@H](N)[C@H](O)[C@H](C)O1 [Doxorubicin (Adriamycin)]	76.6	59.7
